In this assay the target is T1, AmiB (mature form, bacterial two-hybrid fusion) (E. coli) (UniProt P26365).
T1 sequence: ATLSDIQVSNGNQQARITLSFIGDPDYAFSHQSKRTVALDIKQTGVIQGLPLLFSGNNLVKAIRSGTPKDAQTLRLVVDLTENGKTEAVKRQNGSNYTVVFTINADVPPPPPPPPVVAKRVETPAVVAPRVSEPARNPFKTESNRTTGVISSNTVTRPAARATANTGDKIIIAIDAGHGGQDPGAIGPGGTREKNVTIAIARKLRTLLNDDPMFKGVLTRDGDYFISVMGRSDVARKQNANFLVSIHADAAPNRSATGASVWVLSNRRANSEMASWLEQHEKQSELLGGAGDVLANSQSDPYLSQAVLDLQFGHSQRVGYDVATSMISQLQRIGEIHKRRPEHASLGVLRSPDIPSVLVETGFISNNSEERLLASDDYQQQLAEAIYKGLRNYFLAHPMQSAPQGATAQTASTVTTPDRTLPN
The experiment in a line: two-hybrid; BACTH (T18 and T25 fusions of split CyaA) in the cytoplasm of E. coli BTH101; cultures spotted on LB agar with X-gal and 0.5 mM IPTG, 20°C, 3 days.

Positions count from the first letter of the chain named. Numbers in names are those of the source. No constants are given. Whether binding was seen depends on the method and setting. Some binding calls cover weakened binding; strength is not graded here. Where a sequence is shown, tags or fusion partners need not be part of it.

B1: EnvC L236E (bacterial two-hybrid fusion) (protein, UniProt P37690 35-419)
chain: DERDQLKSIQADIAAKERAVRQKQQQRASLLAQLKKQEEAISEATRKLRETQNTLNQLNKQIDEMNASIAKLEQQKAAQERSLAAQLDAAFRQGEHTGIQLILSGEESQRGQRLQAYFGYLNQARQETIAQLKQTREEVAMQRAELEEKQSEQQTLLYEQRAQQAKLTQALNERKKTLAGLESSIQQGQQQLSELRANESRERNSIARAEAAAKARAEREAREAQAVRDRQKEATRKGTTYKPTESEKSLMSRTGGLGAPRGQAFWPVRGPTLHRYGEQLQGELRWKGMVIGASEGTEVKAIADGRVILADWLQGYGLVVVVEHGKGDMSLYGYNQSALVSVGSQVRAGQPIALVGSSGGQGRPSLYFEIRRQGQAVNPQPWLGR
B1: the binding entry is given as “binds”.

B2: EnvC Arg237Glu (bacterial two-hybrid fusion) (protein, UniProt P37690 35-419)
chain: B1 chain with E202L, R203E
As for B2, the binding result is “no binding”.

B3: EnvC (wild-type, mature form, bacterial two-hybrid fusion) (protein, UniProt P37690 35-419)
chain: B1 chain with E202L
With B3, the binding result was “no binding”.

B4: EnvC I240E (bacterial two-hybrid fusion) (protein, UniProt P37690 35-419)
chain: B1 chain with E202L, I206E
Take B4: the binding entry is on record as “binds”.

B5: EnvC I240K (bacterial two-hybrid fusion) (protein, UniProt P37690 35-419)
chain: B1 chain with E202L, I206K
For the molecule B5, the binding entry is reported as “binds”.

B6: EnvC Glu233Arg (bacterial two-hybrid fusion) (protein, UniProt P37690 35-419)
chain: B1 chain with E199R, E202L
In the case of B6, the binding entry is given as “no binding”.
